Experimental data as given in the supplement of paper PMC10126150.
Sequences with one replicate were seen in a single cluster, so their values are uncertain.

tested on: ATP; assay: switch fluorescence ratio, 500 uM ATP over buffer (Cy3 cluster intensity, sum of 5 cycles each) (fold (ratio)); higher = stronger signal-on switching upon ATP binding; sequences stand for … in TCGTCGGCAGCGTCAGATGTGTATAAGAGACAGTTTTTTTTTTTTTTTTTTTTTTTTT…TC; details: aptamer strand: ATP DNA aptamer (quencher-CACCTGGGGGAGTATTGCGGAGGAAGG + anchor), 100 nM annealed; ATP concentration: 500 uM; one replicate
In short: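 Per cluster, summed Cy3 intensity from the target cycles was divided by that from the buffer cycles to give the fluorescence ratio, then averaged per switch-domain sequence. Clusters outside 100-1000 RFU were excluded. The Cy3-labelled switching-strand clusters, on a modified Illumina MiSeq flow-cell, were annealed to 100 nM quencher-labelled ATP aptamer and imaged in selection buffer, then after 15 min with 500 uM ATP at 22 °C, for five cycles with NaOH stripping and re-annealing between them.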
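Further: ATP exposure 15 min at 22 °C before imaging.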

Sequence | switch fluorescence ratio
TGAGACTCAA | 0.985
TGAGATCGGA | 1.14
TGAGCTAGCC | 1.02
TGAGCTTATA | 1.07
TGAGCTTCAG | 1
TGAGGAAGTG | 1
TGAGGAGTTG | 1.04
TGAGGATTTA | 0.967
TGAGGCGAGT | 1.01
TGAGGGACCA | 1.01
TGAGGGGACC | 1.03
TGAGGGTACT | 1.01
TGAGGTTGTT | 1.01
TGAGTAAAGA | 0.977
TGAGTAAGCG | 0.924
TGAGTACAAG | 0.986
TGAGTATTG | 1.02
TGAGTCCGGA | 0.952
TGAGTGAAGT | 0.968
TGAGTGTAAG | 0.997
TGAGTGTCTC | 1.03
TGAGTTAAGA | 0.99
TGAGTTCCGT | 1.05
TGAGTTCGAT | 0.98
TGAGTTCGTT | 1.01
TGAGTTGACG | 0.967

Sequence | switch fluorescence ratio
TGAGTTGCCA | 1
TGATAACCGG | 0.924
TGATAATAG | 1.01
TGATACGCTT | 1.09
TGATAGAGGT | 0.989
TGATAGCGG | 1.03
TGATAGGTGA | 1.08
TGATATTGAC | 1.07
TGATCATAAT | 1.01
TGATCGCGAA | 1.07
TGATCGGTCG | 0.98
TGATCTAAAG | 1.03
TGATCTGTG | 0.959
TGATGCAGGA | 1.07
TGATGCCGT | 0.963
TGATGCGGCC | 1.02
TGATGCTTCG | 1.04
TGATGGAGTG | 1.01
TGATGGTAT | 1.04
TGATGGTATC | 0.99
TGATGTCCCA | 1.01
TGATGTTCGG | 1
TGATGTTTCC | 0.987
TGATTAATCT | 0.993
TGATTAGAAC | 1.04
TGATTAGAAT | 0.967

Sequence | switch fluorescence ratio
TGATTAGGAA | 1.02
TGATTAGTAT | 1.03
TGATTATGAC | 0.952
TGATTCTGT | 0.98
TGATTGAGAT | 0.952
TGATTGCGG | 0.997
TGATTGGG | 0.975
TGATTGTAGC | 1
TGATTGTGCT | 1.03
TGCAACGGAC | 2.22
TGCAAGACTA | 3.59
TGCAAGTTC | 1.16
TGCACAAAGA | 0.966
TGCACACTTA | 1.03
TGCACAGCTT | 1.04
TGCACGCATC | 1.48
TGCACGGTAC | 1.84
TGCAGAATCC | 1.03
TGCAGCGAAC | 4.29
TGCAGGAGTG | 0.961
TGCAGGCGTC | 1.07
TGCAGTAAAA | 1.01
TGCAGTAAGT | 1.03
TGCAGTTGTA | 0.978
TGCATAAGGG | 1.01
TGCATAGCCC | 0.988

Sequence | switch fluorescence ratio
TGCATAGGAT | 0.986
TGCATATCG | 1.07
TGCATCCGGG | 1.05
TGCATCGATT | 1.02
TGCATCGTTG | 0.972
TGCATGCTGT | 0.983
TGCATGGCTT | 0.951
TGCATGGGTA | 1.03
TGCATGTAAA | 0.981
TGCATTCCGT | 1.05
TGCATTTCCT | 1.03
TGCCAACAGT | 1.02
TGCCAAGGAA | 0.998
TGCCAAGTG | 0.983
TGCCAATATT | 1.06
TGCCAATCTA | 1
TGCCACATAA | 1.07
TGCCACGCTT | 0.986
TGCCAGCAGT | 1.09
TGCCATGGCA | 0.945
TGCCCATGTC | 0.946
TGCCCCCTTT | 0.994
TGCCCCGATT | 1.07
TGCCCCGTGC | 1.36
TGCCCGATCC | 1.09
TGCCCTTGGG | 1.31

Sequence | switch fluorescence ratio
TGCCGACAAT | 1.03
TGCCGGATGG | 0.983
TGCCGTACTA | 1.02
TGCCGTTAGT | 1.06
TGCCGTTGAT | 1.01
TGCCTAATCA | 0.957
TGCCTACATT | 1.01
TGCCTAGTAA | 0.998
TGCCTATAGG | 1.02
TGCCTCAACG | 1.06
TGCCTCATAG | 1
TGCCTGATTT | 0.993
TGCCTGGAGC | 1.03
TGCCTGGCGT | 1.01
TGCCTGTACT | 1.07
TGCCTTAACC | 1.05
TGCCTTAATT | 1.01
TGCCTTGAGT | 1.03
TGCCTTGGGA | 0.969
TGCCTTTGTG | 0.966
TGCGACCTCC | 1.94
TGCGACGCGA | 1.14
TGCGAGCGAG | 1.06
TGCGAGTTGT | 0.965
TGCGCAGAAT | 0.968
TGCGCCTTAT | 1.01

Sequence | switch fluorescence ratio
TGCGCGAAGG | 0.999
TGCGCGCGTA | 0.977
TGCGGAAA | 1.03
TGCGGGACC | 0.986
TGCGGGGGA | 1.04
TGCGGGGGT | 0.966
TGCGGGTCAG | 1.01
TGCGGTAGG | 1
TGCGTACGTG | 0.99
TGCGTACTGA | 1.04
TGCGTAGTAA | 1.09
TGCGTATACT | 0.982
TGCGTATAGT | 0.997
TGCGTCCTC | 0.983
TGCGTCTCGT | 0.985
TGCGTGTCGT | 1.02
TGCGTTGAAT | 1.01
TGCGTTGTAC | 1.48
TGCTACCAT | 1.03
TGCTAGCTGA | 1
TGCTAGGAGA | 1
TGCTAGTCTG | 0.95
TGCTATCGTC | 0.978
TGCTATGATT | 1.04
TGCTCAGCAA | 2.24
TGCTCAGGGG | 1.37

Sequence | switch fluorescence ratio
TGCTCCTTTC | 1.31
TGCTCTACTG | 1
TGCTCTCGAA | 1.07
TGCTCTGCC | 1.14
TGCTCTTCAA | 1.12
TGCTCTTGGT | 1.03
TGCTGAAAGG | 0.953
TGCTGATCAG | 0.991
TGCTGCCGGC | 0.939
TGCTGCGCCG | 1.02
TGCTGCGCGT | 1.1
TGCTGCTGAT | 1.01
TGCTGGACAC | 1.01
TGCTGTTGCA | 0.975
TGCTTAAAA | 0.956
TGCTTACAT | 0.965
TGCTTATGAC | 1.04
TGCTTGCCCA | 1.01
TGCTTGGCTT | 0.974
TGCTTGGGCA | 0.986
TGCTTGGGCG | 0.989
TGCTTGTAGA | 1.01
TGCTTTAGTC | 1.01
TGGAACCCCC | 1.07
TGGAACCTTG | 1.02
TGGAACTTGC | 1.12

Sequence | switch fluorescence ratio
TGGAAGAAAG | 1.01
TGGAAGCCAA | 1
TGGAAGGTA | 0.994
TGGACCATA | 1.06
TGGACCGAGT | 0.986
TGGACGCGCG | 1.01
TGGACTCGGG | 0.968
TGGACTTCCT | 1.45
TGGACTTGAG | 0.982
TGGAGCATGT | 1.16
TGGAGGGAGC | 1.01
TGGAGGTGTA | 0.987
TGGAGTGAAT | 1
TGGAGTTCAC | 1
TGGATCAATC | 1.01
TGGATCTGG | 1.02
TGGATCTTA | 1
TGGATGACGT | 1.02
TGGATTCCTG | 0.951
